# According to the supplement of paper PMC11417369:
# This is one part of the list.
# Tested on: PfSIP2 AP2 domain 1 (GST-tagged)
# Assay: gcPBM binding intensity (ln(normalized median fluorescence intensity)); higher = stronger DNA binding
# Method in brief: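 GST-tagged P. falciparum DNA-binding domains produced in E. coli were incubated for 1 h on an Agilent 4 × 180k array of primer-extended double-stranded 36-bp intergenic genomic probes with negative controls. Binding intensity is the highest Masliner-normalised natural-log median intensity across replicate spots of either probe orientation, with bound protein detected by Alexa488 anti-GST antibody at 488 nm.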
row,Sequence,gcPBM binding intensity (ln)
1,ATATAGATCTACACTGCACACATTTTTAACACTGCT [CACACA_site1882],7.21
2,TATACATATATATATACACACATATATATATATACA [CACACA_site402],7.23
3,ACGCATGTAATTTATACACACATTCTTTTATATTTT [CACACA_site3708],6.95
4,AAATTATTATCGTTAATATGTATATATGTGCCAAGT [TGCATGCA_negctrl_site557],7.22
5,CAATTAAATATATGAACACACATGTGAACTTTCTAT [CACACA_site3977],6.86
6,AAATACCTGATATATACACACTATGTTTTTCTTTTT [CACACA_site6680],7
7,TATTAAATTATATAGACACACATTATATATATATAT [CACACA_site4345],8.96
8,AAAAAGAAATATTTATGTACATAATAATAATATTTT [XGTACX_site4693],6.85
9,AATATAGATACATATACACACACACCCATACATATA [CACACA_site9137],7.3
10,AAGAAAAACATTACGTGTACCAAAAGGCCTGTCAAC [XGTACX_site267],6.99
11,GTAACAAATAAAATAACACACATGTCGAAATGTATG [CACACA_site2971],7
12,ATAATTATATAAATATATATAATATATATATGAAAA [XGTACX_negctrl_site357],6.9
13,AAAATGGGTTAGCACATACACACCAATATATTATAT [CACACA_site3082],6.89
14,TATAGATGTATGTACATACACACATATATAAATAAA [CACACA_site1789],7.05
15,TGTTAATTTATATTATGTACTTATAATTATCGTTTG [XGTACX_site1032],7.08
16,ATAATTCTAAATAAATGTACACACAAAAATAAATGT [XGTACX_site3547],7.28
17,ATTGTATGCACGTCTGCACACTTTTTTTTTTTTTTT [CACACA_site2082],8.65
18,TAACGCATGAATATAATATATATATATATAAAAATA [GTGCAC_negctrl_site218],7.35
19,GTTAATTGAAGATTCACACATAAATATATATATAAT [CACACA_site5482],6.92
20,TAGATAAATGGGTATACACACATATACATAAATATA [CACACA_site375],6.89
21,GTAAGATTTCTTGTTGCATGCGGTAAAAAGTAAAAT [TGCATGCA_site469],7.39
22,TACACCCACCAACACACACACACACCCAAAAAAAAA [CACACA_site498],7.6

row,Sequence,gcPBM binding intensity (ln)
1,AACTTTATACTTTTTTGTACTTAACCCTTACATTTT [XGTACX_site5798],7.32
2,AACATACATAAACACACACACACACCCACACCCACA [CACACA_site8058],7.09
3,TTTATATATTTATTCACACATATAATATTCCGTCGT [CACACA_site6120],6.88
4,TTTATGAAACAGTGCACACATAAAAATATATACATA [CACACA_site2992],11
5,TAATTATAAATTATAGTGCATAAAATTGTAGCATAA,8.6
6,AAAATATGATATGAAAAATTTGTTATATATACATAA [CACACA_negctrl_site1529],6.84
7,GACATTTGTGAGCTTGAGCCGTCAAACCACTAAATA [CACACA_negctrl_site552],6.58
8,TGTATTAATATGGTAATACACACTAATATACTTTTG [CACACA_site1610],6.81
9,TGTAGAATTTCCTGAACATGCAAATAATTTTCCTTA [TGCATGCA_site881],6.65
10,AAAAAATTGAAGGAGTGTACATTTATACTTTATTTT [XGTACX_site8623],6.8
11,TGTTATTCGACATATACACACAAATAACAATTTAAA [CACACA_site5076],7.1
12,AACATAATAAAAATGGATATAATTCAAAGTTTGTAA [TGCATGCA_negctrl_site529],6.72
13,AGGTCTGTTTTATATTGTACATAAAAAGTGCACATG [XGTACX_site4529],11.4
14,TTCTATAAGTATAAATGTACAAAAAAAACATCATTC [XGTACX_site5450],7.14
15,CATATTCCAAGAATGTGTACATAATTTTTTTTTTTT [XGTACX_site4310],7
16,CTCATAATTTCTGAACGTACGTATTTCTCATTTTTA [XGTACX_site7296],7.13
17,ATTTTTTTTTAATGCAAAAGGTGATGATCGGTCATA [CACACA_negctrl_site959],6.82
18,TTTTCTTGATTTTGTAGTACATTTTTACGATATTTT [XGTACX_site63],7.11
19,ATGTAAATTATTATTCTATTGTTATATACACAATAT [XGTACX_negctrl_site332],6.85
20,CACATACATATATACACACACAAAATAATAAAATAA [CACACA_site2308],7.35
21,TTTTTAAAAATAACAGAAAAGAATTACAGATTTTTT [XGTACX_negctrl_site472],6.8
22,TTTTTTACATCCATAAAACTTTTTCTCTTTTAAAAT [CACACA_negctrl_site1745],6.79

row,Sequence,gcPBM binding intensity (ln)
1,AGAGAGAAAGGTATAACATGCGATAAATTTTAGAAG [TGCATGCA_site37],6.88
2,ATATAGTTCGTTTATACACACATGATAAGATATTTA [CACACA_site1947],7.16
3,AAATCACTTTTTAAGTGTACTTGGTCTTTCTCATTT [XGTACX_site7221],6.81
4,TTAAAAATATTATGTACACACATTTTAGATATTTGT [CACACA_site1846],6.99
5,TAAATATATATATATTGTACAAAACAAATGTGAATT [XGTACX_site696],7.28
6,TCCTAATATTTGTCAAATTTCAAAATAAATAAAATG [XGTACX_negctrl_site540],6.88
7,TAATTAAAATCATATACACACCCATATATATATATA [CACACA_site8524],9.1
8,TATATATATATGTACACACACACATATAAATAAATA [CACACA_site443],9.18
9,TAAAAGGGGATATATGAACACACAAAAAAAAAATAT [CACACA_site8940],7.13
10,TTAAAAAAAAAAAAAAGTACATAAGTATATATAATA [XGTACX_site4295],7.55
11,CATATTTTTTCTTAAACACACACATATATATATATA [CACACA_site8920],9.03
12,ATATTAAGTTTTATTACACACTCTCAATTTTTATTT [CACACA_site4206],6.98
13,TAAATGTTTCTCAAAAGTACACATGTGATATTTCTT [XGTACX_site2065],6.84
14,TATATATAATTATAAGAACACACATATATATATATA [CACACA_site8786],9.52
15,TACAAATATAGATGCACACACATATAGGTATATGTG [CACACA_site7439],7.48
16,ATATATTTCTGTCAAGCACACATAATATTAATATAT [CACACA_site7993],7.24
17,AATGATACTTAGGGGCATGTCTCTGGGGGCATAACC [CACACA_negctrl_site591],7.8
18,CATATTATATTTTCATGTACACATAACATATTTATA [XGTACX_site4787],7.27
19,GTTATAAACAAAATAAATATATGAATATATAATAAT [XGTACX_negctrl_site96],6.96
20,ATATAGTAAATGTTCACACATACAAATATATATATA [CACACA_site5518],8.71
21,AAGTTTTCTTAAAGCTGTACTTTTTAAAAATAAAAT [XGTACX_site7716],6.73
22,TTTAACATAAATTAAACACACAATAAAATACATTAA [CACACA_site6699],6.87

row,Sequence,gcPBM binding intensity (ln)
1,CATAAATACAGATATACACACATATATATATATATA [CACACA_site4528],9.67
2,ATAATACATATAGAAGGTACACTATTATTTTCCTGA [XGTACX_site903],6.8
3,GAGGTACATTAATTAGTGCATTAAAATTTTTATCCT,8.39
4,ATTATCCATGCATTTACACACACACTAATAAAAATT [CACACA_site9358],7.99
5,TAATTTCTTATGTATTGTACAAATAATATATTATTT [XGTACX_site3066],7.02
6,ATTCAAAATAATCACAGTACACATGAGATTATCTTT [XGTACX_site2197],6.8
7,ACTTCATAAACATTTTGTACGTATGTATCTTTTTAT [XGTACX_site7012],7.29
8,TTAATATGGAAATGTTGTACATTTCTTGAAGCATTC [XGTACX_site525],6.69
9,TTATTGAAAAACATAATATCTAAGAGGGTAATATAT [GTGCAC_negctrl_site599],6.84
10,TGTATTATTAATATTTGTACGTAATAATAAAAACAT [XGTACX_site3716],7.02
11,TGGAAACAAAAACACACACACAAAAAAAAAAAAAAA [CACACA_site3209],6.86
12,TCCTTAGAAATATTGATCATAAACTGGAAAGGTATA [XGTACX_negctrl_site354],6.95
13,GAAATATATAAATTGACACACACATATATACATATA [CACACA_site8323],7.02
14,ATTTATCCAAAAAAATGTACAGGATAATTTGTTCAT [XGTACX_site7737],6.88
15,TATTATGCCTTTAATATACACACTAATATTTTTTTG [CACACA_site2045],6.92
16,TATAAAAATTAATATTGTACGTTTTATGAAAATAAA [XGTACX_site8237],6.93
17,CATAATACCTATAACACACACAATTATACATAAACT [CACACA_site7506],7.15
18,GGGTTCAATTTAAAGAGTACAAAAAATGTAGGTCAT [XGTACX_site5290],7.07
19,TTTTAATAAACAAAACGTACACATTATTATTATATA [XGTACX_site335],7.01
20,TTTGTAGTTTGCACATGTACACATTTCAAAATAAAG [XGTACX_site7568],7.49
21,AATATATACATATATTGTACATATAGTTTCTTGCAT [XGTACX_site7871],7.05
22,TTTTTTTTTTTGTGGGTGCGTTTATAAAAACAGGAA,11.1
